Laboratory results as given in the supplement of paper PMC9446081.
In all, about 39,000 compounds went through this assay and about 220 (0.56%) showed activity. Some of the results follow.
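Also: static incubation at 37 °C against the wild-type strain, values averaged over two biological replicates.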

What follows are compounds tested on Escherichia coli K-12 BW25113 (assay: relative growth (OD600 normalised to plate interquartile mean) (fraction); higher = less growth inhibition, active = 0.2 or less). Conditions: 50 µM; LB; incubation time: overnight (16-24 h).
`CCCCC(=O)C1CCCC=C1C(=O)O` (stereo unspecified) was tested, and the relative growth was inactive: 1.04. With `C[C@@H]1CN([C@H](C)CO)C(=O)Cc2cc(NC(=O)C3CCCCC3)ccc2O[C@H]1CN(C)S(C)(=O)=O` the relative growth was inactive: 1. For `COc1ccc(NC(=O)Nc2ccc3c(c2)C(=O)N([C@@H](C)CO)C[C@H](C)[C@@H](CN(C)Cc2ccc(-c4ccccc4)cc2)O3)cc1`, the relative growth was inactive: 1.02. `COc1ccc(S(=O)(=O)N(C)C[C@H]2Oc3ccc(NS(=O)(=O)c4ccccc4)cc3CC(=O)N([C@H](C)CO)C[C@H]2C)cc1` was tested, and the relative growth was inactive: 0.994. For `COc1ccc(NC(=O)N(C)C[C@H]2OCCCC[C@H](C)Oc3ccc(NC(=O)Nc4c(C)noc4C)cc3C(=O)N([C@@H](C)CO)C[C@@H]2C)cc1`, the relative growth was inactive: 0.98. For `Cn1c(=O)[nH]c2nnc(-c3ccccn3)nc2c1=O`, the relative growth was inactive: 0.816. With `CNCC(O)c1ccc(O)c(O)c1.O=C(O)C(O)C(O)C(=O)O` (stereo unspecified) the relative growth was inactive: 1.17. With `COc1ccc(NC(=O)N(C)C[C@H]2Oc3ccc(NC(=O)Nc4cccc5ccccc45)cc3CC(=O)N([C@H](C)CO)C[C@H]2C)cc1` the relative growth was inactive: 0.976. In the case of `CNC(=O)CC1CCNCC1`, the relative growth is reported as inactive: 1.01. `C[C@@H]1CN([C@H](C)CO)C(=O)c2cc(NS(=O)(=O)c3ccc(Cl)cc3)ccc2O[C@H]1CN(C)Cc1ccc(C(=O)Nc2ccccc2N)cc1` was tested, and the relative growth was inactive: 1. For `C[C@@H]1CN([C@@H](C)CO)S(=O)(=O)c2ccc(C#Cc3ccncc3)cc2O[C@H]1CN(C)S(=O)(=O)c1ccccc1`, the relative growth was inactive: 1.02. `CCC1(O)C(=O)OCc2c1cc1n(c2=O)Cc2cc3cc(O)ccc3nc2-1` (stereo unspecified) was tested, and the relative growth was inactive: 1. `CC(=O)N1[C@H](CO)[C@H](c2ccccc2)[C@@H]1CNC(=O)CN1CCOCC1` was tested, and the relative growth was inactive: 0.988. In the case of `CC(=O)C12OC1(C)CC1C3CC=C4CC(O)CCC4(C)C3CCC12C` (stereo not drawn) [16beta-METHYL-16(17)-EPOXY-5-PREGNENOLONE], the relative growth is reported as inactive: 0.955. `C[C@H](CO)N1C[C@H](C)[C@H](CN(C)Cc2ccc(C(=O)O)cc2)OCCCC[C@H](C)Oc2ccc(NC(=O)C3CCCCC3)cc2C1=O` was tested, and the relative growth was inactive: 1.01. For `O=C(N[C@@H](c1ccccc1)c1ccc2ccccc2n1)C1CCN(Cc2ccc(Oc3ccccc3)cc2)CC1`, the relative growth was inactive: 1.02. With `CC(C)[C@@H](N)c1nc2ccccc2[nH]1` the relative growth was inactive: 1. For `CC(C)NC(=O)N(C)C[C@H]1Oc2ccc(NC(=O)CCN3CCOCC3)cc2C(=O)N([C@@H](C)CO)C[C@@H]1C`, the relative growth was inactive: 1.01. With `C[C@H]1CN([C@@H](C)CO)C(=O)Cc2cc(NC(=O)Cc3cn(C)c4ccccc34)ccc2O[C@H]1CN(C)C(=O)Nc1cccc2ccccc12` the relative growth was inactive: 1.01. `CN(C)Cc1cn(CC[C@H]2CC[C@@H](NS(=O)(=O)c3ccccc3)[C@H](CO)O2)nn1` was tested, and the relative growth was inactive: 0.988. `COc1ccc(NC(=O)N(C)C[C@H]2Oc3c(NS(=O)(=O)c4cn(C)cn4)cccc3C(=O)N([C@@H](C)CO)C[C@H]2C)cc1` was tested, and the relative growth was inactive: 1.01. In the case of `COc1ccc(NC(=O)N(C)C[C@H]2OCCCC[C@H](C)Oc3ccc(NS(=O)(=O)c4c(C)noc4C)cc3C(=O)N([C@H](C)CO)C[C@@H]2C)cc1`, the relative growth is reported as inactive: 1. With `O=C(C[C@H]1CC[C@@H]2[C@H](COC[C@H](O)CN2C(=O)c2ccccn2)O1)NC1CCC1` the relative growth was inactive: 1.02. With `[N-]=[N+]=NCc1ccccc1C[C@]1(C(=O)NC[C@@H](O)CO)N=C(c2ccc(OCCCO)cc2)O[C@H]1c1ccccc1` the relative growth was inactive: 1.01. In the case of `CC(=O)N[C@H]1C(=O)SC1(C)C`, the relative growth is reported as inactive: 0.996. With `C[C@@H]1CN([C@@H](C)CO)C(=O)c2cccc(NC(=O)Nc3ccc(C(F)(F)F)cc3)c2O[C@H]1CN(C)S(=O)(=O)c1ccc(Cl)cc1` the relative growth was inactive: 0.793. For `C[C@H](CO)N1C[C@H](C)[C@@H](CN(C)Cc2ccc3c(c2)OCO3)OCCCC[C@H](C)Oc2ccc(NS(=O)(=O)c3ccc(Cl)cc3)cc2C1=O`, the relative growth was inactive: 1.01. `CC(C)(Sc1cc(C(C)(C)C)c(O)c(C(C)(C)C)c1)Sc1cc(C(C)(C)C)c(O)c(C(C)(C)C)c1` was tested, and the relative growth was inactive: 1.08. In the case of `C[C@H]1[C@H]([Si](C)(C)F)[C@@H](CCO)O[C@]12C(=O)N(Cc1ccccc1)c1ccc(N3C(=O)c4ccccc4Oc4ccccc43)cc12`, the relative growth is reported as inactive: 1.01. `C[C@H](CO)N1C[C@H](C)[C@@H](CN(C)C(=O)Cc2ccccc2)OCCCC[C@H](C)Oc2ccc(NC(=O)C3CCCCC3)cc2C1=O` was tested, and the relative growth was inactive: 1.03. `O=C(C[C@@H]1CC[C@@H]2[C@H](COC[C@H](O)CN2S(=O)(=O)c2cccc(Cl)c2)O1)NC1Cc2ccccc2C1` was tested, and the relative growth was inactive: 0.985. With `C[C@@H]1CN([C@H](C)CO)C(=O)c2cc(C#C[C@@H](C)O)cnc2O[C@@H]1CN(C)Cc1cncnc1` the relative growth was inactive: 0.997. `C[C@H](CO)N1C[C@H](C)[C@@H](CN(C)Cc2ccc(C(=O)O)cc2)Oc2ccc(NC(=O)c3ccncc3)cc2CC1=O` was tested, and the relative growth was inactive: 1.03. For `N=C(N=C(N)N)Nc1ccccc1`, the relative growth was inactive: 0.972. With `Cc1ccc(-c2ccc(N)cc2)cc1` the relative growth was inactive: 0.953. For `CC(C)(C)NCC(O)COc1nsnc1N1CCOCC1.O=C(O)C=CC(=O)O` (stereo unspecified), the relative growth was inactive: 0.974. For `C[C@@H]1CN([C@H](C)CO)C(=O)c2cc(C#Cc3ccccc3F)cnc2O[C@@H]1CN(C)C(=O)c1ccc2c(c1)OCO2`, the relative growth was inactive: 1. For `CC(C)CC#Cc1ccc2c(c1)O[C@@H](CN(C)C(=O)c1cccnc1)[C@@H](C)CN([C@@H](C)CO)S2(=O)=O`, the relative growth was inactive: 0.981. With `COCC#Cc1ccc2c(c1)O[C@@H](CN(C)C(=O)COC)[C@@H](C)CN([C@@H](C)CO)S2(=O)=O` the relative growth was inactive: 0.998. `COc1ccc(-c2cc(=O)c3c(O)cc(OC4OC(COC5OC(C)C(O)C(O)C5O)C(O)C(O)C4O)cc3o2)cc1O` (stereo unspecified) was tested, and the relative growth was inactive: 1.11. With `CO[C@@H]1CN(C)C(=O)c2ccc(NC(=O)C3CCC3)cc2OC[C@@H](C)N(C(=O)Nc2ccc(C(F)(F)F)cc2)C[C@H]1C` the relative growth was inactive: 0.963.
